Measurements from PubChem BioAssay (NCATS).
Inconclusive means that the source gave no clear call. Such entries were picked first, then a sample of the others. Where the call is inconclusive, the potency comes from a doubtful curve fit. The source made the active and inactive calls. Calls follow the shape of the dose curve; as a rule, active = well fitted curve in the direction sought with a large enough effect; inconclusive = small, poorly fitted or top-dose-only effect, or another doubt; inactive = no such curve, though single readings can be large; an effect the other way counts as inactive or inconclusive.
Potency is read from the fitted curve at half-maximal effect; tags tell the direction and shape of the fitted curve.

Each molecule was assayed on Zika virus NS2B-NS3 protease (linked construct) (assay: Primary screen NINDS Rhodamine qHTS for Zika virus inhibitors (AID 1347160; also: nearly all actives have a fitted effect of over 55% in size; as to activity change, negative = inhibition: % is scaled to controls: 0 for no effect and ±100 for the full control effect)). Details: purified NS2B-NS3 protease, Rhodamine110 substrate fluorescence; series mostly up to 57.1 µM; activity change, negative = inhibition: at the top concentration.
Method in brief: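 Purified NS2B-NS3 protease with the NS2B hydrophilic domain joined by a flexible linker (25 nM) in 10 mM Tris-HCl pH 8.0, 0.01% Tween 20, preincubated 15 min at RT with compound; Rhodamine110 peptide substrate 1.5 µM; fluorescence change over 15 min; 4-parameter Hill fit.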
In the case of `CCOC(=O)C1(CCc2ccccc2)CCN(Cc2ccc(NC(C)=O)cc2)CC1`, the “activity change, negative = inhibition” value is reported as inactive: 51.2%. `COc1ccc(CC2C(=O)NC(C)C(=O)N(C)C3Cc4ccc(cc4)Oc4cc(ccc4OC4OC(CO)C(O)C(O)C4O)CC(C(=O)NC(C)C(=O)NC(CCC(=O)O)C(=O)N2C)N(C)C3=O)cc1` (stereo not given) was tested, and the “activity change, negative = inhibition” value was inactive: -4.98% [at 15.1 µM]. With `C[C@]12CC[C@H](O[C@@H]3O[C@H](CO)[C@@H](O)[C@H](O)[C@H]3O)CC1CC[C@@H]1C2CC[C@]2(C)[C@@H](C3=CC(=O)OC3)CC[C@]12O` (stereo not given in full) the “activity change, negative = inhibition” value was inactive: 29.5% [at 33.1 µM]. `COc1ccc2[nH]c(-c3ccccc3)c(CCN(C)C)c2c1` was tested, and the “activity change, negative = inhibition” value was inactive: 8.02%. `COc1cc2c(c(OC)c1OC)-c1ccc(SC)c(=O)cc1[C@@H](NC(C)=O)CC2` was tested, and the “activity change, negative = inhibition” value was inactive: 13.4%. For `CS[C@]1(CO)C(=O)N2[C@H]3C(=CC=C[C@@H]3O)C[C@@]2(SC)C(=O)N1C`, the Potency was inconclusive: 11.2 µM [inhibitor, single point]. `C/C=C(/C)C1C=CC2CC(C)CC(C)C2C1/C(O)=C1\C(=O)NC(CC(C)(O)C(=O)O)C1=O` (stereo not given) was tested, and the Potency was inconclusive: 12.6 µM [inhibitor, single point]. `COC(=O)C1(C)CCC(O)C2(C)c3cc(O)c(C(C)C)cc3C(O)C(OC(C)=O)C12` (stereo not given) was tested, and the Potency was inconclusive: 11.2 µM [inhibitor, partial curve]. In the case of `CC1=CC2(O)/C=C/C(C)(O)C(O)C(O)/C=C/C(=O)OC23C(=O)NC(CC(C)C)C3C1C` (stereo not given), the Potency is reported as inconclusive: 14.1 µM [inhibitor, single point]. With `CCC1NC(=O)C2C(Cl)C(Cl)CN2C(=O)C(CC)NC(=O)CC(c2ccccc2)NC(=O)C(CO)NC1=O` (stereo not given) the Potency was inconclusive: 1.12 µM [inhibitor, full curve, poor fit].

The molecules below were run against Lysine-specific demethylase 5B (Homo sapiens) (UniProt Q9UGL1) (assay: Optimization screen for KDM5B Histone Demethylases FDH coupled qHTS against the LOPAC library (AID 1347166; as to activity, negative = inhibition: 0% is about no effect)). Details: KDM5B demethylation, FDH-coupled NADH fluorescence (FDH is formaldehyde dehydrogenase); activity, negative = inhibition: at 57.5 µM (top of the series) unless noted.
Sequence of UniProt Q9UGL1 (Q9UGL1 whole entry, looked up): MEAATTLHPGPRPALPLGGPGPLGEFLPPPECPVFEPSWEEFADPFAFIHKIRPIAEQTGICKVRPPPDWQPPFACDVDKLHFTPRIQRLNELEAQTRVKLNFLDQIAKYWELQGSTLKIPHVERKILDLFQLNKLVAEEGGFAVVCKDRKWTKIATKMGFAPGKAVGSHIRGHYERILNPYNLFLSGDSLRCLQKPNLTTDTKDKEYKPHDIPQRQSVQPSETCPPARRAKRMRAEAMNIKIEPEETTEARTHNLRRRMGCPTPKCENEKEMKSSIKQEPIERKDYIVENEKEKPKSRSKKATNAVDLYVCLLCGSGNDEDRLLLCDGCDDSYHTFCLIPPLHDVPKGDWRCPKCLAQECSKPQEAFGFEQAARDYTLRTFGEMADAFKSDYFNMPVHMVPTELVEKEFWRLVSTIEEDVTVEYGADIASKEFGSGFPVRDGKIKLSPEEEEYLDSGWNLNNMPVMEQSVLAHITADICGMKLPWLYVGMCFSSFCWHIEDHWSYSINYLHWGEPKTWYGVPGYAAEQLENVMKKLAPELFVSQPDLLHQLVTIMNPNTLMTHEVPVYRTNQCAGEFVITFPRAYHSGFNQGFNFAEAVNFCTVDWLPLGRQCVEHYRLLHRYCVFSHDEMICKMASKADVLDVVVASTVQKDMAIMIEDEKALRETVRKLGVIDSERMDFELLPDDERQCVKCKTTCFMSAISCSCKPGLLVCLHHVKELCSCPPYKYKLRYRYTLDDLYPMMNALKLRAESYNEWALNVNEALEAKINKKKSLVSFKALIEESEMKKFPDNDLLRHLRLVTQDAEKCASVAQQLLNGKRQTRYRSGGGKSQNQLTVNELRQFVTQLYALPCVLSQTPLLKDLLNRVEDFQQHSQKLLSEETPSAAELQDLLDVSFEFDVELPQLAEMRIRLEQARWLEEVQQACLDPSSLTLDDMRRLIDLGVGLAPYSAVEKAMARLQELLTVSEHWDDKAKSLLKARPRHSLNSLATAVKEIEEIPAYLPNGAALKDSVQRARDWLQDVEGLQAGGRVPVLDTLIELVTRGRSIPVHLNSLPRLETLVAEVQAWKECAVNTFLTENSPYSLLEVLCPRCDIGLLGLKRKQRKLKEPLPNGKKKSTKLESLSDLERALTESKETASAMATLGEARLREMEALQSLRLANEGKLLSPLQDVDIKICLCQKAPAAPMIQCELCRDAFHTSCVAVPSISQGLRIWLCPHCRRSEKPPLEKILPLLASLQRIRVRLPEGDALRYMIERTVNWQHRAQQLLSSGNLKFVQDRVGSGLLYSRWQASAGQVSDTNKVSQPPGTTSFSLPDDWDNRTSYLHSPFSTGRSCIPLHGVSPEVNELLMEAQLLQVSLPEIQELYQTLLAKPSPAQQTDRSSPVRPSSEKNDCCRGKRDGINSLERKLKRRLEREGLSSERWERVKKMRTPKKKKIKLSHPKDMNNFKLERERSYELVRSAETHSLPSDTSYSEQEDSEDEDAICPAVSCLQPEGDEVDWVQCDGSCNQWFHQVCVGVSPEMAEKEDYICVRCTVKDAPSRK
Method in brief: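 KDM5BDeltaAP (200nM final) preincubated 10 min with compound, then 12.5uM H3K4Me3, 25uM a-ketoglutarate, ascorbate, Fe(II), NAD+ and FDH added; 50mM HEPES pH 7.5, 0.01% Tween-20. NADH fluorescence (340/450 nm) change over 30 min, room temperature.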
In the case of `NC(N)=Nc1ccc2[nH]c3c(c2c1)C[C@@]1(O)[C@H]2Cc4ccc(O)c5c4[C@@]1(CCN2CC1CC1)[C@H]3O5`, the Potency is reported as inconclusive: 20 µM [inhibitor, partial curve, poor fit]. For `CCCCC/C=C\C/C=C\C/C=C\C/C=C\CCCC(=O)NCC(=O)O`, the Potency was inconclusive: 22.4 µM [inhibitor, partial curve, poor fit]. For `C#CCN[C@H](C)Cc1ccccc1`, the “activity, negative = inhibition” value was inactive: -7.44%. `O=c1[nH]c2ccccc2n1C1CCN(CCCC(c2ccc(F)cc2)c2ccc(F)cc2)CC1` was tested, and the “activity, negative = inhibition” value was inactive: -20.6%. For `CN(N=O)c1cc(O)ccc1O`, the Potency was inconclusive: 10 µM [inhibitor, partial curve, poor fit]. `COc1ccccc1N1CCNCC1` was tested, and the “activity, negative = inhibition” value was inactive: -6.79%. With `NC(=O)CN1CCCC1=O` the “activity, negative = inhibition” value was inactive: -2.55%. With `Cc1cccc(C)c1NC1=NCCCS1` the “activity, negative = inhibition” value was inactive: -0.828%. `N#C/C(=C/c1ccc(O)c(O)c1)C(N)=S` was tested, and the Potency was inconclusive: 17.8 µM [inhibitor, partial curve, poor fit]. `O=c1c2ccccc2[se]n1-c1ccccc1` was tested, and the Potency was inconclusive: 8.91 µM [inhibitor, full curve, poor fit]. `CN1CC[C@@]2(C)c3cc(OC(=O)Nc4ccccc4)ccc3N(C)[C@@H]12` was tested, and the Potency was inconclusive: 22.4 µM [inhibitor, partial curve, poor fit]. In the case of `CC[C@@H](CO)NC(=O)[C@@H]1C=C2c3cccc4c3c(cn4C)C[C@H]2N(C)C1`, the activity, negative = inhibition is reported as inconclusive: -1170% [inhibitor] [at 11.5 µM]. `CC(=O)[C@H]1CC[C@H]2[C@@H]3CC[C@H]4C[C@H](O)CC[C@]4(C)[C@H]3C(=O)C[C@]12C` was tested, and the “activity, negative = inhibition” value was inactive: -0.698%. In the case of `CN(N=O)c1ccc(O)c(O)c1`, the Potency is reported as inconclusive: 14.1 µM [inhibitor, partial curve, poor fit]. With `CC[C@@H](C(N)=O)N1CCCC1=O` the “activity, negative = inhibition” value was inactive: -1.49%. In the case of `Cc1ccc(S(=O)(=O)N[C@@H](CCCCN)C(=O)CCl)cc1`, the Potency is reported as inconclusive: 39.8 µM [inhibitor, single point]. For `O=C(O)CCCc1ccc(N(CCCl)CCCl)cc1`, the “activity, negative = inhibition” value was inactive: -7.83%. With `COc1ccc2c(c[n+](C)c3c4cc5c(cc4ccc23)OCO5)c1OC` the Potency was inconclusive: 28.2 µM [inhibitor, partial curve, poor fit]. For `CN1CC[C@@]2(C)c3cc(O)ccc3N(C)C12` (stereo not given in full), the Potency was active: 2.51 µM. In the case of `CCCN1CCC[C@@H]2Cc3nc(N)ncc3C[C@H]21`, the “activity, negative = inhibition” value is reported as inactive: -24.5%.
